Test results as given in the BET-seq Pho4 binding data (Le et al. 2018).
The list shows a part of the results. Values were computed here from the reads of four pooled replicates and scatter widely.

Biological target: T1, Pho4 (S. cerevisiae) (UniProt P07270)
T1 sequence: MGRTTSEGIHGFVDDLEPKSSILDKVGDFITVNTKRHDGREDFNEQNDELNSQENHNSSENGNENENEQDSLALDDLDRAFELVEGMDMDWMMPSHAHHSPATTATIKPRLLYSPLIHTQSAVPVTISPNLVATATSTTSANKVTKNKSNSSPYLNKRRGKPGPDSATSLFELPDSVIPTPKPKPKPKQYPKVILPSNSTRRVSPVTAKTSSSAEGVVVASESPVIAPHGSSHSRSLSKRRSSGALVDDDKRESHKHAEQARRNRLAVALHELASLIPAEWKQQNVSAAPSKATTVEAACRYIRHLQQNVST
Assay: relative binding free energy (BET-seq); higher = weaker binding
Conditions: reference: library average

Sequence | relative binding free energy [kcal/mol]
AAGTACACGTGGTATG | 0
AAGTTCACGTGCGGGA | 0.17
GTTATCACGTGGAGAT | 0.36
AGTTGCACGTGGGGCC | -0.14
CTGTGCACGTGGGGGG | -0.23
TTGGTCACGTGGATGG | 0.08
ATGGGCACGTGCGCGA | -0.16
GGTATCACGTGTAAAA | 0.23
GGATACACGTGAAGGT | 0.17
GTATCCACGTGCGGGT | 0.01
GTGGACACGTGTTTCA | 0
TTTGGCACGTGTATCA | -0.03
TTGTTCACGTGGTGGG | 0.28
GCCGGCACGTGTGGAG | 0.01
GCGAGCACGTGTTAGG | -0.13
TTAGTCACGTGGTGCC | -0.02
AATCACACGTGTTTGG | 0.03
AGGATCACGTGGCTAG | 0.12
CAGTTCACGTGATAGG | 0.22
AAGGACACGTGATGTT | 0.21
TTTCACACGTGTAGGC | 0.18
GGAGTCACGTGTCGGA | 0.28
TGCTACACGTGCAGGG | 0.15

Sequence | relative binding free energy [kcal/mol]
CATAGCACGTGCGTGT | -0.06
TTTTGCACGTGTGGGA | 0.09
TTACTCACGTGGGTAT | 0.04
GGAAACACGTGAGGTT | 0.17
TTAGCCACGTGGAGGG | 0.05
TGGAGCACGTGGTCTA | -0.16
GAGTGCACGTGTTGCA | 0.03
TGTTGCACGTGGACTG | -0.05
TGAAACACGTGTTTAG | 0.06
GCTTACACGTGGTGGA | 0.05
TCGGGCACGTGTATTG | -0.24
TTGTTCACGTGCGTGG | 0.3
TTTATCACGTGTTAAA | 0.21
TTGGGCACGTGCTACT | -0.04
GCCGGCACGTGGTGGT | -0.15
TGCCGCACGTGGTTGT | -0.14
ACATGCACGTGATTTT | 0.05
TATATCACGTGTTGAT | 0.12
GTGATCACGTGATAGA | 0.48
TAATGCACGTGTGCGG | -0.05
TTGTTCACGTGGGCGA | 0.09
AAAGGCACGTGGAATA | 0.09
TTACACACGTGTGTGT | 0.01

Sequence | relative binding free energy [kcal/mol]
TAAGGCACGTGGGACA | -0.23
CATTTCACGTGAGTTG | 0.23
TGTTGCACGTGCTGCA | -0.18
GTCTTCACGTGAAGGT | 0.39
TTAGTCACGTGGGATT | 0.06
TTGGTCACGTGGGAGT | 0.01
TTATTCACGTGACAGT | 0.16
GGAATCACGTGTAGGC | 0.19
GTTTGCACGTGCGAGA | 0.05
ACGGGCACGTGAGAGG | 0.18
TTTTTCACGTGCGAAG | 0.29
TTATTCACGTGGGTCG | 0.2
TTGAGCACGTGCTCGG | -0.2
AATTGCACGTGCTATT | 0.1
AGACTCACGTGGTGTA | 0.12
TTGTTCACGTGGTCCG | 0.31
GGTCACACGTGGAGGA | 0.11
AGGGTCACGTGAAGAT | 0.4
AAGTGCACGTGGAATG | -0.09
TAATGCACGTGAGGTT | 0.13
TTGAGCACGTGGGTGT | -0.16
GAGTACACGTGATGGG | 0.28
GATAGCACGTGGTAGG | -0.13

Sequence | relative binding free energy [kcal/mol]
GTGTTCACGTGAGGTG | 0.5
GGAGGCACGTGGATTG | -0.11
TGGGGCACGTGATTCT | -0.09
AGTCGCACGTGGCGAG | -0.1
TGTTGCACGTGAGTAC | 0.17
AGTACCACGTGTTGTG | -0.11
TCGTACACGTGATTGA | 0.31
TTCGACACGTGGGTCG | -0.01
TCGATCACGTGTAAGT | 0.27
GAGTTCACGTGGAATT | 0.41
AAGAGCACGTGAATGT | 0.22
AGTTCCACGTGGTGGC | 0.08
CGCTGCACGTGTTGGT | 0.04
TGTTTCACGTGAGGCT | 0.31
GGAGCCACGTGTGATT | 0.17
AAATGCACGTGTCTGG | 0
GTTTACACGTGTTGAT | 0.09
TGCTTCACGTGGGAAT | 0.2
GTGGGCACGTGCGTTA | -0.26
CTTAGCACGTGTCGTT | -0.01
TTGGGCACGTGTTAGC | 0
GTTTACACGTGGAGGT | 0.21
TCTGGCACGTGGGACG | -0.14

Sequence | relative binding free energy [kcal/mol]
ATTGTCACGTGTGAGG | 0.23
TAGTGCACGTGAGGGT | 0.24
TTATGCACGTGACAGT | 0.09
CATTGCACGTGAAGGG | 0.29
AGGAGCACGTGAGATA | 0.33
GGATACACGTGTGGAT | 0.08
TTAAGCACGTGTTCGG | -0.02
TTTAGCACGTGTCGTT | 0
TAAGGCACGTGGTTGG | -0.2
GTCATCACGTGTTGCG | 0.28
TTTGACACGTGAGGTT | 0.19
TTAATCACGTGGAAAG | 0.29
ATTGTCACGTGTCGTC | 0.1
TGAGACACGTGTGTTT | -0.07
GCGTTCACGTGTAGGG | 0.23
CGGTTCACGTGGCATT | 0.17
AAGAGCACGTGGATGG | -0.19
TAGGACACGTGCTTTT | -0.07
ATTTACACGTGGTAGA | 0.1
CAGGGCACGTGTTATG | 0.03
GGGACCACGTGGGGCG | -0.18
GATGGCACGTGCTATG | 0.02
TTGAACACGTGTTATA | -0.04
